# Test results: ChEMBL document CHEMBL5724801, “EUbOPEN Chemogenomics Library - Multiplex” (2024)
# Certain results were filed several times, with different values. The list is limited to them. The source may hold further records. Values that stand side by side are repeated measurements (runs, samples, wells, individuals or studies).
# Experiments:
# Assay type in all cases: toxicity, cell-based
# [1] = test system: U2OS; assay: Multiplex assay against U2OS; details: human
# Outline: (§1)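 Compound was added to live cells that had been stained at seeding with Hoechst33342, BioTracker Green Microtubule Cytoskeleton Dye, MitoTracker Red and Annexin V Alexa Fluor 680, and imaging followed on a CQ1 microscope at 37°C and 5% CO2. CellPathfinder machine-learning gating divided cells into Hoechst high-intensity objects or normal cells, normal cells into healthy, pyknosed or fragmented nuclei, and pyknosed cells into mitotic or apoptotic. Tubulin, mitochondrial-mass and membrane-permeability phenotypes are per cents of healthy-nucleus cells.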
# [2] = test system: Fibroblast; assay: Multiplex assay against human fibroblast; outline: as §1
# [3] = test system: HEK-293T; assay: Multiplex assay against HEK293T; details: human; outline: as §1
# [4] = 12 h, 1 µM, compound concentration 1 uM
# [5] = 24 h, 10 µM, compound concentration 10 uM
# [6] = 48 h, 1 µM, compound concentration 1 uM
# [7] = 12 h, 10 µM, compound concentration 10 uM
# [8] = 24 h, 1 µM, compound concentration 1 uM
# [9] = 48 h, 10 µM, compound concentration 10 uM
smiles,measurement,setting,value
CN[C@@H](C)C(=O)N[C@H](C(=O)N1CCC[C@H]1C(=O)Nc1snnc1-c1ccccc1)C1CCCCC1 [GDC-0152],Population Mitotic Cells (%),[1]; [4],39% and 10%
same,Population Mitotic Cells (%),[1]; [5],31% and 7%
same,Population Mitochondria Different-Phenotype (%),[2]; [6],1% and 14%
Cn1cnc(-c2cnc(O[C@H]3CCN(C(=O)Cc4ccc(OC(F)(F)F)cc4)C[C@H]3F)c(C(N)=O)c2)c1,Population Healthy Nuclei (%),[3]; [4],58.82% and 18.68%
same,Population Healthy Nuclei (%),[3]; [7],41.3% and 12.59%
same,Population Healthy Nuclei (%),[3]; [5],60% and 19.75%
O=c1cccc2n1C[C@@H]1CNC[C@H]2C1 [CYTISINICLINE],Population Tubulin-Different-Phenotype (%),[3]; [4],6.75% and 35.29%
same,Population Healthy Nuclei (%),[3]; [7],53.52% and 15.61%
same,Population Tubulin-Different-Phenotype (%),[3]; [7],4.61% and 14.81%
same,Total Cell Count,[3]; [8],503 and 150
same,Population Pyknosed Nuclei (%),[3]; [5],16.44% and 51.87%
same,Population Apoptotic (%),[3]; [6],5.71% and 33.33%
same,Population Pyknosed Nuclei (%),[3]; [6],9.18% and 34.33%
same,Population Tubulin-Different-Phenotype (%),[3]; [6],1.29% and 29.03%
same,Total Cell Count,[3]; [6],1144 and 201
same,Population Tubulin-Different-Phenotype (%),[3]; [9],0.24% and 14.23%
same,Total Cell Count,[3]; [9],1475 and 355
same,Population Mitochondria Different-Phenotype (%),[2]; [6],16.91% and 2.36%
same,Population Mitochondria Different-Phenotype (%),[2]; [9],14.62% and 2.96%
Cl.NCCc1ccc(O)c(O)c1 [DOPAMINE HYDROCHLORIDE],Population Tubulin-Different-Phenotype (%),[2]; [7],14% and 44%
CC(F)(F)CN1CCOc2c(nn(-c3ccccc3Cl)c2-c2ccc(Cl)cc2)C1=O,Population Mitochondria Different-Phenotype (%),[2]; [6],2% and 21%
same,Population Mitochondria Different-Phenotype (%),[2]; [9],22% and 7%
O=C(Nc1ccccc1Cl)c1cnc2ccc(C3CCNCC3)cn12.O=C(O)C(=O)O,Population Healthy Nuclei (%),[3]; [4],41.9% and 11.19%
same,Population Mitochondria Different-Phenotype (%),[3]; [4],56.6% and 6.25%
same,Population Healthy Nuclei (%),[3]; [7],27.27% and 7.43%
same,Population Healthy Nuclei (%),[3]; [8],66.34% and 15.38%
same,Population Pyknosed Nuclei (%),[3]; [6],12.89% and 60.87%
same,Population Tubulin-Different-Phenotype (%),[3]; [6],4.77% and 52.83%
same,Total Cell Count,[3]; [6],1002 and 161
same,Total Cell Count,[3]; [9],483 and 149
same,Population Apoptotic (%),[2]; [4],6.9% and 26.83%
same,Population Fragmented Nuclei (%),[2]; [7],10.99% and 0.43%
same,Population Fragmented Nuclei (%),[2]; [5],13.14% and 1.41%
same,Population Apoptotic (%),[2]; [6],10% and 35.48%
same,Population Membrane Permeable-Phenotype (%),[2]; [9],8.47% and 37.37%
C[C@@H]1CC(=O)Nc2cccc(-c3ccc4c(c3)c(-c3cnn(C)c3)nn4C)c2N1,Population Mitotic Cells (%),[1]; [7],13% and 66%
same,Total Cell Count,[1]; [7],235 and 76
same,Population Mitochondria Different-Phenotype (%),[2]; [7],19% and 5%
same,Population Mitochondria Different-Phenotype (%),[2]; [5],15% and 4%
same,Population Membrane Permeable-Phenotype (%),[2]; [6],1% and 12%
same,Population Mitochondria Different-Phenotype (%),[2]; [9],19% and 2%
same,Population Mitotic Cells (%),[2]; [9],7% and 39%
CSc1nc(NC2CCCC2)c([N+](=O)[O-])c(NC2CCCC2)n1 [GS-39783],Population Mitochondria Different-Phenotype (%),[2]; [7],5% and 16%
same,Population Membrane Permeable-Phenotype (%),[2]; [6],1% and 23%
CSCC[C@H](NC=O)C(=O)N[C@@H](CC(C)C)C(=O)N[C@@H](Cc1ccccc1)C(=O)O,Population Mitotic Cells (%),[1]; [4],26% and 0%
same,Population Mitotic Cells (%),[1]; [6],15% and 3%
same,Population Membrane Permeable-Phenotype (%),[1]; [9],4% and 80%
same,Population Mitochondria Different-Phenotype (%),[1]; [9],2% and 50%
same,Total Cell Count,[1]; [9],362 and 41
COC[C@@H](c1ccc(C(F)(F)F)cc1)N1CCN(C2(C)CCN(C(=O)c3c(C)ncnc3C)CC2)C[C@@H]1C.O=C(O)/C=C\C(=O)O [VICRIVIROC MALEATE],Population Mitotic Cells (%),[1]; [7],13% and 66%
same,Population Mitochondria Different-Phenotype (%),[1]; [8],3% and 14%
same,Population Mitotic Cells (%),[1]; [8],22% and 6%
same,Total Cell Count,[1]; [5],326 and 99
same,Population Mitotic Cells (%),[1]; [6],21% and 6%
same,Population Mitotic Cells (%),[1]; [9],20% and 6%
same,Total Cell Count,[1]; [9],437 and 140
CCCCCCNC(=O)Nc1ccc(S(=O)(=O)Nc2ccc(CCNC[C@H](O)COc3ccc(O)cc3)cc2)cc1 [L-755507],Population Mitotic Cells (%),[1]; [9],20% and 5%
CN1CCC(C(=O)c2cccc(NC(=O)c3c(F)cc(F)cc3F)n2)CC1,Population Mitotic Cells (%),[1]; [4],10% and 42%
COc1cc(C(=O)N2CC[C@@H](O)[C@@H](N)C2)cc2nc(-c3cc4ccccc4n3CC3CC3)n(C)c12.Cl,Population Mitochondria Different-Phenotype (%),[2]; [8],5% and 20%
CCN1CCN(Cc2ccc(Nc3ncc(F)c(-c4cc(F)c5nc(C)n(C(C)C)c5c4)n3)nc2)CC1.CS(=O)(=O)O,Population Mitochondria Different-Phenotype (%),[3]; [4],47.06% and 14.29%
same,Population Healthy Nuclei (%),[3]; [7],20.8% and 5.51%
same,Population Pyknosed Nuclei (%),[3]; [6],12.33% and 44.31%
same,Population Tubulin-Different-Phenotype (%),[3]; [6],2.99% and 65.56%
same,Total Cell Count,[3]; [6],788 and 167
same,Population Mitochondria Different-Phenotype (%),[2]; [8],22.86% and 7.56%
same,Population Mitochondria Different-Phenotype (%),[2]; [6],19.23% and 3.43%
same,Population Mitochondria Different-Phenotype (%),[2]; [9],18.97% and 4.75%
CN1CCN2c3ncccc3Cc3ccccc3C2C1 (stereo not given) [MIRTAZAPINE],Total Cell Count,[1]; [4],301 and 81
same,Total Cell Count,[1]; [7],266 and 83
same,Total Cell Count,[1]; [8],340 and 99
same,Total Cell Count,[1]; [6],479 and 132
same,Population Pyknosed Nuclei (%),[2]; [7],10% and 32%
same,Population Fragmented Nuclei (%),[2]; [8],7% and 26%
same,Population Pyknosed Nuclei (%),[2]; [5],7% and 23%
O=S(=O)(c1ccccc1)c1cnc2c(N3CCNCC3)cccc2c1 [INTEPIRDINE],Total Cell Count,[1]; [4],267 and 88
same,Population Mitotic Cells (%),[1]; [9],22% and 4%
same,Population Mitotic Cells (%),[2]; [5],60% and 8%
Cc1ccc(C(C)(O)c2nc3ccccc3s2)c(C)c1 (stereo not given),Population Mitotic Cells (%),[1]; [7],0% and 33%
same,Population Mitotic Cells (%),[1]; [9],3% and 14%
same,Population Fragmented Nuclei (%),[3]; [4],19% and 4%
CNC[C@H](O)c1ccc(O)c(O)c1 [EPINEPHRINE],Population Hoechst High Intensity Objects (%),[3]; [7],9% and 40%
same,Population Hoechst High Intensity Objects (%),[3]; [5],8% and 39%
same,Population Hoechst High Intensity Objects (%),[3]; [9],3% and 21%
same,Population Membrane Permeable-Phenotype (%),[2]; [4],1% and 13%
same,Population Membrane Permeable-Phenotype (%),[2]; [7],1% and 12%
same,Population Fragmented Nuclei (%),[2]; [8],12% and 38%
CC(C)c1noc(N2CCC(COc3ccc(-c4ccc(S(C)(=O)=O)cc4)nc3)CC2)n1 [GSK-1292263],Population Mitotic Cells (%),[1]; [4],27% and 0%
same,Population Mitotic Cells (%),[1]; [5],7% and 33%
same,Population Fragmented Nuclei (%),[2]; [7],8% and 26%
same,Population Pyknosed Nuclei (%),[2]; [6],6% and 24%
CSc1ccccc1N1CCN(CCCCCC(=O)NC2CCCc3ccccc32)CC1.Cl (stereo not given),Population Mitotic Cells (%),[1]; [6],35% and 4%
same,Population Mitotic Cells (%),[2]; [5],9% and 33%
same,Population Mitotic Cells (%),[2]; [9],8% and 31%
N#Cc1cc(F)cc(-c2nc(-c3ccc(F)cn3)no2)c1,Population Mitotic Cells (%),[1]; [4],44% and 0%
same,Population Fragmented Nuclei (%),[1]; [5],32% and 9%
same,Population Membrane Permeable-Phenotype (%),[2]; [4],2% and 15%
same,Population Membrane Permeable-Phenotype (%),[2]; [8],1% and 12%
same,Population Tubulin-Different-Phenotype (%),[2]; [8],18% and 58%
same,Population Fragmented Nuclei (%),[2]; [5],12% and 47%
same,Population Mitotic Cells (%),[2]; [9],16% and 50%
O=C(NCCNCC(O)COc1ccc(O)cc1)N1CCOCC1.O=C(NCCNCC(O)COc1ccc(O)cc1)N1CCOCC1.O=C(O)/C=C/C(=O)O (stereo not given) [XAMOTEROL FUMARATE],Population Membrane Permeable-Phenotype (%),[2]; [4],1% and 16%
same,Population Membrane Permeable-Phenotype (%),[2]; [8],2% and 18%
same,Population Tubulin-Different-Phenotype (%),[2]; [6],21% and 65%
COc1c(C)cc(NC(=O)c2nn(Cc3ccc(F)cc3)c3c2CN(C(=O)c2ccc[nH]2)C[C@]3(C)C(N)=O)cc1C,Population Mitochondria Different-Phenotype (%),[2]; [9],54% and 16%
O=C(O)c1cc2ccccc2c(Cc2c(O)c(C(=O)O)cc3ccccc23)c1O [PAMOIC ACID],Population Mitotic Cells (%),[1]; [4],15% and 50%
same,Population Fragmented Nuclei (%),[2]; [7],7% and 24%
same,Population Pyknosed Nuclei (%),[2]; [8],4% and 18%
same,Population Fragmented Nuclei (%),[2]; [5],8% and 34%
CC(C)(C)c1ccc(S(=O)(=O)Nc2ccc(Cl)cc2C(=O)c2cc[n+]([O-])cc2)cc1 [VERCIRNON],Population Membrane Permeable-Phenotype (%),[1]; [7],3% and 15%
same,Population Tubulin-Different-Phenotype (%),[1]; [7],1% and 15%
same,Population Membrane Permeable-Phenotype (%),[1]; [5],1% and 13%
same,Population Tubulin-Different-Phenotype (%),[1]; [5],1% and 15%
same,Population Membrane Permeable-Phenotype (%),[2]; [5],4% and 21%
same,Population Membrane Permeable-Phenotype (%),[2]; [9],1% and 16%
Cc1noc(-c2ccc(-c3ccc(CC(=O)O)cc3)cc2)c1NC(=O)O[C@H](C)c1ccccc1Cl,Population Mitotic Cells (%),[1]; [8],3% and 22%
same,Population Mitotic Cells (%),[1]; [6],2% and 13%
CC[C@H](Nc1ncnc2[nH]cnc12)c1nc2cccc(F)c2c(=O)n1-c1ccccc1 [IDELALISIB],Population Mitochondria Different-Phenotype (%),[1]; [7],0.34% and 20.18%
same,Population Tubulin-Different-Phenotype (%),[1]; [7],12.84% and 2.75%
same,Population Mitochondria Different-Phenotype (%),[1]; [5],0.83% and 22.31%
same,Population Mitochondria Different-Phenotype (%),[1]; [9],0.69% and 13.95%
same,Total Cell Count,[1]; [9],687 and 218
same,Population Tubulin-Different-Phenotype (%),[3]; [4],2.78% and 48.72%
same,Population Healthy Nuclei (%),[3]; [7],35.27% and 8.5%
same,Population Pyknosed Nuclei (%),[3]; [6],10.19% and 30.65%
same,Population Tubulin-Different-Phenotype (%),[3]; [6],0.82% and 29.94%
same,Total Cell Count,[3]; [6],1256 and 262
same,Population Tubulin-Different-Phenotype (%),[3]; [9],12.37% and 60.42%
COc1ccc2c(c1)C(C(=O)N(Cc1ccc(N(C)C)cc1)c1ccc(C(C)C)cc1)CCC2.Cl (stereo not given),Population Mitotic Cells (%),[1]; [6],20% and 6%
same,Population Mitotic Cells (%),[1]; [9],26% and 7%
CCc1nn2c(C)cc(C)nc2c1Cc1ccc(-c2nnc(C3CCNCC3)o2)cc1,Population Fragmented Nuclei (%),[1]; [4],28% and 9%
same,Population Mitotic Cells (%),[1]; [4],57% and 14%
same,Population Tubulin-Different-Phenotype (%),[1]; [5],7% and 28%
same,Population Tubulin-Different-Phenotype (%),[1]; [9],3% and 18%
same,Population Apoptotic (%),[2]; [7],51% and 14%
same,Population Mitochondria Different-Phenotype (%),[2]; [8],3% and 15%
